According to the supplement of paper PMC10369915:
The other results are listed elsewhere or left out. Rule as the data show it: active = 3.2 or more and inactive = the rest. The signal is at background level for most entries.

Assays:
Assay in all cases: enrichment score (SH2-bound / input frequency) (ratio); bacterial display of known human phosphotyrosine sites (pTyr-Var adds point mutants) read by sequencing; higher = stronger binding; tyrosines were phosphorylated by kinases first
Details in all cases: peptide library: pTyr-Var
SHP2 C-SH2 domain E139D = target: SHP2 C-SH2 domain E139D
[1] = target: SHP2 C-SH2 domain wild-type
SHP2 N-SH2 domain L43F = target: SHP2 N-SH2 domain L43F
SHP2 N-SH2 domain T42A = target: SHP2 N-SH2 domain T42A
SHP2 N-SH2 domain T52S = target: SHP2 N-SH2 domain T52S
[2] = target: SHP2 N-SH2 domain wild-type

Measured: enrichment score
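Also: displayed peptides selected on beads carrying the immobilized SH2 domain, with library peptides lacking any tyrosine serving as negative controls.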

QRHFVYFFSFL [PTEN_Y176_R173H_YF]
inactive: SHP2 C-SH2 domain E139D 1.86 | [1] 2.35 | SHP2 N-SH2 domain L43F 1.52 | SHP2 N-SH2 domain T42A 1.81 | SHP2 N-SH2 domain T52S 2.34 | [2] 2.39

QRRNVYYYSYL [PTEN_Y176_Y174N]
inactive: SHP2 C-SH2 domain E139D 0.541 | [1] 0.564 | SHP2 N-SH2 domain L43F 0.753 | SHP2 N-SH2 domain T42A 0.555 | SHP2 N-SH2 domain T52S 0.714 | [2] 0.5

QRRFVYFFSFL [PTEN_Y176_YF]
inactive: SHP2 C-SH2 domain E139D 1.05 | [1] 1.17 | SHP2 N-SH2 domain L43F 0.831 | SHP2 N-SH2 domain T42A 0.851 | SHP2 N-SH2 domain T52S 1.16 | [2] 0.706

RHYVYYYSYLL [PTEN_Y177_R173H]
inactive: SHP2 C-SH2 domain E139D 2.01 | [1] 2.38 | SHP2 N-SH2 domain L43F 1.9 | SHP2 N-SH2 domain T42A 1.93 | SHP2 N-SH2 domain T52S 1.57 | [2] 1.56

RHFVFYFSFLL [PTEN_Y177_R173H_YF]
inactive: SHP2 C-SH2 domain E139D 0.996 | [1] 0.958 | SHP2 N-SH2 domain L43F 1.46 | SHP2 N-SH2 domain T42A 1.09 | SHP2 N-SH2 domain T52S 1.2 | [2] 0.807

RPYVYYYSYLL [PTEN_Y177_R173P]
inactive: SHP2 C-SH2 domain E139D 1.72 | [1] 1.79 | SHP2 N-SH2 domain L43F 0.902 | SHP2 N-SH2 domain T42A 1.29 | SHP2 N-SH2 domain T52S 1.11 | [2] 1.23

RPFVFYFSFLL [PTEN_Y177_R173P_YF]
inactive: SHP2 C-SH2 domain E139D 1.28 | [1] 1.57 | SHP2 N-SH2 domain L43F 0.916 | SHP2 N-SH2 domain T42A 1.24 | SHP2 N-SH2 domain T52S 0.941 | [2] 1.36

RRYLYYYSYLL [PTEN_Y177_V175L]
inactive: SHP2 C-SH2 domain E139D 0.299 | [1] 0.209 | SHP2 N-SH2 domain L43F 0.379 | SHP2 N-SH2 domain T42A 0.293 | SHP2 N-SH2 domain T52S 0.607 | [2] 0.537

RRNVYYYSYLL [PTEN_Y177_Y174N]
inactive: SHP2 C-SH2 domain E139D 0.293 | [1] 0.22 | SHP2 N-SH2 domain L43F 0.311 | SHP2 N-SH2 domain T42A 0.229 | SHP2 N-SH2 domain T52S 0.208 | [2] 0.205

RRFVFYFSFLL [PTEN_Y177_YF]
inactive: SHP2 C-SH2 domain E139D 0.355 | [1] 0.239 | SHP2 N-SH2 domain L43F 0.254 | SHP2 N-SH2 domain T42A 0.286 | SHP2 N-SH2 domain T52S 0.32 | [2] 0.389

PYVYYYSYLLK [PTEN_Y178_R173P]
inactive: SHP2 C-SH2 domain E139D 0.86 | [1] 1.03 | SHP2 N-SH2 domain L43F 0.945 | SHP2 N-SH2 domain T42A 0.924 | SHP2 N-SH2 domain T52S 1.09 | [2] 0.796

RYLYYYSYLLK [PTEN_Y178_V175L]
inactive: SHP2 C-SH2 domain E139D 2.5 | [1] 2.86 | SHP2 N-SH2 domain L43F 2.9 | SHP2 N-SH2 domain T42A 2.37 | SHP2 N-SH2 domain T52S 2.8 | [2] 2.15

RFLFFYSFLLK [PTEN_Y178_V175L_YF]
inactive: SHP2 C-SH2 domain E139D 1.39 | [1] 1.48 | SHP2 N-SH2 domain L43F 1.07 | SHP2 N-SH2 domain T42A 1.29 | SHP2 N-SH2 domain T52S 1.45 | [2] 1

RNVYYYSYLLK [PTEN_Y178_Y174N]
inactive: SHP2 C-SH2 domain E139D 2.71 | [1] 2.58 | SHP2 N-SH2 domain L43F 2.33 | SHP2 N-SH2 domain T42A 2.32 | SHP2 N-SH2 domain T52S 2.31 | [2] 2.2

RNVFFYSFLLK [PTEN_Y178_Y174N_YF]
inactive: SHP2 C-SH2 domain E139D 2.15 | [1] 1.84 | SHP2 N-SH2 domain L43F 1.68 | SHP2 N-SH2 domain T42A 1.75 | SHP2 N-SH2 domain T52S 1.98 | [2] 1.86

LYYYSYLLKNH [PTEN_Y180_V175L]
inactive: SHP2 C-SH2 domain E139D 1.27 | [1] 1.63 | SHP2 N-SH2 domain L43F 2.21 | SHP2 N-SH2 domain T42A 2.19 | SHP2 N-SH2 domain T52S 2.21 | [2] 1.57

VFFFSYLLKNH [PTEN_Y180_YF]
inactive: SHP2 C-SH2 domain E139D 1.5 | [1] 2.04 | SHP2 N-SH2 domain L43F 1.86 | SHP2 N-SH2 domain T42A 1.63 | SHP2 N-SH2 domain T52S 1.7 | [2] 1.55

DLDFTYIFPNI [PTEN_Y27_L25F_YF]
inactive: SHP2 C-SH2 domain E139D 1.14 | [1] 1.28 | SHP2 N-SH2 domain L43F 1.06 | SHP2 N-SH2 domain T42A 0.996 | SHP2 N-SH2 domain T52S 0.977 | [2] 1.02

DLDLTSIYPNI [PTEN_Y27_Y27S]
inactive: SHP2 C-SH2 domain E139D 0.649 | [1] 0.546 | SHP2 N-SH2 domain L43F 0.778 | SHP2 N-SH2 domain T42A 0.583 | SHP2 N-SH2 domain T52S 0.766 | [2] 0.661

DLDLTYIFPNI [PTEN_Y27_YF]
inactive: SHP2 C-SH2 domain E139D 1.2 | [1] 1.12 | SHP2 N-SH2 domain L43F 0.869 | SHP2 N-SH2 domain T42A 0.859 | SHP2 N-SH2 domain T52S 1.04 | [2] 1.21

DKANRYFSPNF [PTEN_Y336]
inactive: SHP2 C-SH2 domain E139D 0.876 | [1] 0.744 | SHP2 N-SH2 domain L43F 1.13 | SHP2 N-SH2 domain T42A 1.14 | SHP2 N-SH2 domain T52S 1.25 | [2] 0.838

GKANRYFSPNF [PTEN_Y336_D331G]
inactive: SHP2 C-SH2 domain E139D 0.866 | [1] 0.777 | SHP2 N-SH2 domain L43F 1.03 | SHP2 N-SH2 domain T42A 0.877 | SHP2 N-SH2 domain T52S 1.02 | [2] 0.738

DKANRYFSPNV [PTEN_Y336_F341V]
inactive: SHP2 C-SH2 domain E139D 0.617 | [1] 0.564 | SHP2 N-SH2 domain L43F 0.694 | SHP2 N-SH2 domain T42A 0.606 | SHP2 N-SH2 domain T52S 0.541 | [2] 0.764

RLEGVYRNNID [PTEN_Y46]
inactive: SHP2 C-SH2 domain E139D 0.707 | [1] 1.25 | SHP2 N-SH2 domain L43F 0.99 | SHP2 N-SH2 domain T42A 0.78 | SHP2 N-SH2 domain T52S 0.832 | [2] 0.962

NHFKRYNLCAE [PTEN_Y68_I67R_YF]
inactive: SHP2 C-SH2 domain E139D 0.676 | [1] 0.605 | SHP2 N-SH2 domain L43F 0.484 | SHP2 N-SH2 domain T42A 0.55 | SHP2 N-SH2 domain T52S 0.579 | [2] 0.72

NHYKICNLCAE [PTEN_Y68_Y68C]
active: SHP2 C-SH2 domain E139D 3.43 | [1] 3.23 | SHP2 N-SH2 domain L43F 3.72 | SHP2 N-SH2 domain T42A 3.41 | SHP2 N-SH2 domain T52S 3.67
inactive: [2] 3.09

NHYKIHNLCAE [PTEN_Y68_Y68H]
inactive: SHP2 C-SH2 domain E139D 1.75 | [1] 1.72 | SHP2 N-SH2 domain L43F 1.64 | SHP2 N-SH2 domain T42A 1.28 | SHP2 N-SH2 domain T52S 1.51 | [2] 1.73

TLNFCYQQVKS [PTK2_Y148_F147C]
inactive: SHP2 C-SH2 domain E139D 0.941 | [1] 1.24 | SHP2 N-SH2 domain L43F 0.966 | SHP2 N-SH2 domain T42A 0.892 | SHP2 N-SH2 domain T52S 0.83 | [2] 1.16

DEEDTYTMPST [PTK2_Y407]
inactive: SHP2 C-SH2 domain E139D 0.631 | [1] 0.553 | SHP2 N-SH2 domain L43F 0.547 | SHP2 N-SH2 domain T42A 0.429 | SHP2 N-SH2 domain T52S 0.499 | [2] 0.562

VEEDTYTMPST [PTK2_Y407_D402V]
inactive: SHP2 C-SH2 domain E139D 0.614 | [1] 0.466 | SHP2 N-SH2 domain L43F 0.391 | SHP2 N-SH2 domain T42A 0.48 | SHP2 N-SH2 domain T52S 0.475 | [2] 0.456

LDPMVYMNDKS [PTK2B_Y834]
inactive: SHP2 C-SH2 domain E139D 1.05 | [1] 0.619 | SHP2 N-SH2 domain L43F 0.886 | SHP2 N-SH2 domain T42A 1.56 | SHP2 N-SH2 domain T52S 0.871 | [2] 0.916

ECKFLYSRKEG [PTPN11_Y263_L261F]
inactive: SHP2 C-SH2 domain E139D 0.546 | [1] 0.616 | SHP2 N-SH2 domain L43F 0.953 | SHP2 N-SH2 domain T42A 0.596 | SHP2 N-SH2 domain T52S 0.585 | [2] 0.525

ECKLRYSRKEG [PTPN11_Y263_L262R]
inactive: SHP2 C-SH2 domain E139D 0.278 | [1] 0.266 | SHP2 N-SH2 domain L43F 0.3 | SHP2 N-SH2 domain T42A 0.244 | SHP2 N-SH2 domain T52S 0.289 | [2] 0.373

KNKNRYKNVLP [PTPN11_Y279_I282V]
inactive: SHP2 C-SH2 domain E139D 0.708 | [1] 0.446 | SHP2 N-SH2 domain L43F 0.502 | SHP2 N-SH2 domain T42A 0.414 | SHP2 N-SH2 domain T52S 0.56 | [2] 0.509

EPVSDYINASI [PTPN11_Y304_N308S]
inactive: SHP2 C-SH2 domain E139D 0.624 | [1] 0.818 | SHP2 N-SH2 domain L43F 0.639 | SHP2 N-SH2 domain T42A 0.715 | SHP2 N-SH2 domain T52S 1.57 | [2] 0.852

PTEAQYRFIYM [PTPN11_Y511_Q506P]
inactive: SHP2 C-SH2 domain E139D 0.459 | [1] 0.584 | SHP2 N-SH2 domain L43F 0.569 | SHP2 N-SH2 domain T42A 0.408 | SHP2 N-SH2 domain T52S 0.515 | [2] 0.973

RTEAQYRFIYM [PTPN11_Y511_Q506R]
inactive: SHP2 C-SH2 domain E139D 0.592 | [1] 0.989 | SHP2 N-SH2 domain L43F 0.682 | SHP2 N-SH2 domain T42A 0.51 | SHP2 N-SH2 domain T52S 0.628 | [2] 1.33
